From the RNAGym collection of RNA variant scans (doi:10.7554/elife.90254) come the findings set out here.

B1: LINE1-full (parent)
chain: UACGUAGGUGGUUUUCCCCUGAUAGUGCUAAGGGGGCCUGGAAGUUUGGACUGGGCAGAGCUCAACACAGCGUGGCAAAGUGGCUGUGGCUAGACUGCCUCUCUGGAUUCCUCGUCACUCAGCAGGGCAUCUCUGAGAGAAAUGCC

Read counts are not given, so values of variants with three or more changes are uncertain.

Variants of B1 are the subject of this data set. In words: self-cleavage, relative activity (ratio to wild type); higher = more cleavage; in vitro, sequencing; the parent is a self-cleaving ribozyme.
With U39A A64U A67C A92G U134G A140G, the self-cleavage was 0.07.

Consider U87C U119A A121G A140G, for which the self-cleavage is 0.

In the case of U73A A78G C128U G144U, the self-cleavage is 0.47.

For the variant U1C U5G C38U C98A A140G, the self-cleavage amounted to 0.25.

Consider U39A A94U U130C, for which the self-cleavage turned out to be 0.19.

For U23C A31G U104A U115A, the self-cleavage came out at 1.27.

In the case of U1C U15C A78G C98G U104C, the self-cleavage came to 0.

On to C19G C110A U119C U132C A141G, for which the self-cleavage is 1.69.

For the variant A77G C98G G106U, the self-cleavage worked out at 0.15.

With G34A U39C A59U C76U, the self-cleavage came out at 1.31.

Turning to A42G A92G U130A, the self-cleavage stood at 0.06.

A6G U20C G21U U39C U100C U102C U134A: the self-cleavage worked out at 1.02.

Regarding U104G C116A A117C A141G, the self-cleavage turned out to be 1.61.

In the case of G7A U23A A78G A79G U87A U96C, the self-cleavage worked out at 0.

With U12A U85C A140G, the self-cleavage is 0.17.

On to A30G U62A U104G, for which the self-cleavage was 0.

Turning to A2G A77G A107U, the self-cleavage came out at 1.37.

Regarding U13C A24G A50U U115A, the self-cleavage came to 0.52.

Take G4A A22G U47C G97A G114A: the self-cleavage came to 0.11.

Regarding A2G U52C G127U, the self-cleavage worked out at 1.09.

On to A77G G88A A117C A124U A141G, for which the self-cleavage was found to be 0.06.

Regarding U12A U81C A107U, the self-cleavage was 1.44.

Turning to U14C C98U U115C, the self-cleavage stood at 0.98.

Consider U73A U104C A142G, for which the self-cleavage came to 2.14.

Turning to U1C C66U A107G, the self-cleavage was 0.09.

Turning to A2G U15A U26C A67G, the self-cleavage stood at 0.44.

A57U A92U A141G: the self-cleavage stood at 0.06.

For A57G U62C A124G, the self-cleavage amounted to 0.27.

U85C A94G U96A U143C: the self-cleavage was found to be 0.

In the case of U9C C18U A30G U39G A65C U115A, the self-cleavage stood at 0.

For the variant U13C A30G U96G, the self-cleavage turned out to be 0.

For U5A U62A A69G A107U C133A U143C, the self-cleavage came out at 0.27.

In the case of C61U A94U U109C U132C, the self-cleavage turned out to be 0.02.

As to U26C A42G U91A A138G, the self-cleavage was found to be 0.

For G72A A124G U134A, the self-cleavage turned out to be 0.37.

For A6G U13C A24G U39C C71U U143G, the self-cleavage worked out at 1.06.

Take U81C G88A A140G: the self-cleavage stood at 0.

Turning to U81A U85C A117U, the self-cleavage came to 0.21.

Take G21A A22G A59G: the self-cleavage is 0.06.

Regarding U12C A24G U62A A69G A121G, the self-cleavage stood at 0.

Take U1C A50G C113A A129G U132C: the self-cleavage is 0.5.

In the case of U14A C28U A50G A141U, the self-cleavage came to 0.95.

For the variant U9A U20G U132A, the self-cleavage worked out at 0.5.

Turning to U26C A67G A77U, the self-cleavage stood at 0.

In the case of U39A U91A A107G A129G, the self-cleavage was found to be 1.01.

Regarding A57C U109A U119A, the self-cleavage was 0.02.

For the variant A78G U87A U112C, the self-cleavage worked out at 0.17.

With U12G A107G A142U, the self-cleavage was found to be 1.91.

Regarding U9C U47C A79G U100A A117G, the self-cleavage was determined as 1.15.

Regarding A6U U9C A50G, the self-cleavage was 0.74.

Turning to G40U U115C A129U A138U, the self-cleavage worked out at 1.58.

As for U14C U20A U91A U102A, the self-cleavage was determined as 0.61.

As to U13C A94G U119C, the self-cleavage stood at 0.57.

In the case of U14C A78U U115C, the self-cleavage is 2.41.

Consider A43G A94G U100A, for which the self-cleavage came to 0.49.

Turning to U5C A121G A129G, the self-cleavage amounted to 0.61.

G35A U47C C123A: the self-cleavage came out at 0.95.

For G7A A43G U87A U91C, the self-cleavage was found to be 0.

Regarding A2G U14C U143C, the self-cleavage amounted to 0.6.

For C18A U39C U62C A136G, the self-cleavage was 0.16.

Turning to U12C U13C A59U U62A A78G A79U A129U U143C, the self-cleavage came to 0.39.

Consider U12C G60A A69U U85A A138G, for which the self-cleavage amounted to 0.03.

Take A69U U100C C118U: the self-cleavage was determined as 0.08.

As for A77U U119A A141U, the self-cleavage is 1.18.

For the variant U20C U39C A50U, the self-cleavage is 0.82.

On to U62C U73A U85C, for which the self-cleavage was determined as 0.

For the variant U134A A140G A141G, the self-cleavage came to 0.54.

Regarding G41U U108A U143A, the self-cleavage amounted to 1.63.

Turning to U9A U13C A42G A77U U108C G135A, the self-cleavage turned out to be 0.

Regarding A65G U119C C123U, the self-cleavage was 0.03.

In the case of A22U A24G A142G, the self-cleavage was 1.45.

For G122A A140U U143C, the self-cleavage stood at 1.33.

U26A A31C A57U A79G: the self-cleavage was found to be 0.

Turning to A22U A24U G58A A64G C101A, the self-cleavage was 0.03.

Turning to U1C C71A C99A A117U C120U, the self-cleavage is 0.12.

U46A C66U G70U A121U A142G: the self-cleavage came out at 0.01.

For the variant A42U A59G A117U, the self-cleavage stood at 0.13.

Take A64G A65G U81A U100C: the self-cleavage was 0.

Consider U13C U14C A30U A65G, for which the self-cleavage came out at 0.36.

On to U5G U14C A79G, for which the self-cleavage worked out at 0.31.

As to A50G U62C A124G, the self-cleavage turned out to be 0.34.

Consider G49U A69G G127A, for which the self-cleavage worked out at 0.15.

On to U9C A57G U85G, for which the self-cleavage stood at 0.47.

Consider U15C A42U U62C A121U U132A, for which the self-cleavage came to 0.1.

As to U5C U39A A57U U73C U134A, the self-cleavage was 0.53.

For the variant U13C U15C G49A, the self-cleavage is 1.64.

U13C U46A A94G: the self-cleavage came to 0.38.

As for C38U A42G A59G A67C, the self-cleavage is 0.29.

U81A U96C U130C: the self-cleavage was 0.

For U29C U85C A129G A141G, the self-cleavage is 0.

Turning to A57U A65G A79U A129G, the self-cleavage stood at 0.06.

Take A64U C68G A129U: the self-cleavage worked out at 0.03.

U45C A77U U81C: the self-cleavage was found to be 0.61.

Consider U12C C19U G54A A69G G88A, for which the self-cleavage stood at 0.05.

U62C U87C U119C: the self-cleavage is 0.

For G41A U62C A65G, the self-cleavage came out at 0.01.

For U1C A6G G74A U85C U112C, the self-cleavage was found to be 0.29.

With A31U U130C A141G, the self-cleavage came out at 1.6.

As for U9C U26C A50U U115A U119C, the self-cleavage is 2.12.

Take U1C U45C G80A A129C: the self-cleavage was 0.34.

G48A A77G A107G: the self-cleavage stood at 1.67.

As for A69G U119C U134A, the self-cleavage is 0.69.

Turning to A42G U73C U104A, the self-cleavage worked out at 0.51.

For A65G C103A U112G A117U A142G, the self-cleavage was 0.06.

In the case of U14C A92U G114U U130C, the self-cleavage came to 1.02.

On to A77G U85C U104A, for which the self-cleavage amounted to 0.41.

G41U G48A U109C: the self-cleavage turned out to be 0.71.

Regarding U14G A42U U62C A138G, the self-cleavage is 0.43.

U46C U47C A65G: the self-cleavage came to 0.

Turning to A30G A64G A140G, the self-cleavage came out at 0.25.

For A59G A77U G126A, the self-cleavage stood at 0.03.

For the variant A42U A59G A77U A129U, the self-cleavage came to 0.57.

On to A65G A129G A140U, for which the self-cleavage was determined as 0.

As for U108C U119A A138U, the self-cleavage was 2.21.

Regarding U13C A77G U109C, the self-cleavage turned out to be 0.54.

For the variant G60C A65G A67U A138G, the self-cleavage came to 0.05.

As to A77U U115C A142G, the self-cleavage was determined as 1.53.

Take A42G U112A A136G: the self-cleavage stood at 1.23.

As for G34A A92G C101A U132A, the self-cleavage came out at 0.05.

Turning to A50U U73A C103U, the self-cleavage came out at 1.32.

Take U12A U15C A79U: the self-cleavage was found to be 0.46.

As for U45C U112C A141C, the self-cleavage was 1.04.

U46A A67G C99U: the self-cleavage came to 0.2.

Take U15C U45A U115A: the self-cleavage turned out to be 0.98.

U115A G122A A141G: the self-cleavage stood at 1.24.

As to U12C A30G U96A G122A, the self-cleavage is 0.21.

A50G A64G C66A A78U U87C U132C: the self-cleavage came out at 0.38.

Consider U12C C71U C90G, for which the self-cleavage worked out at 0.06.

For U14C A67U U134A, the self-cleavage worked out at 0.12.

As for A64G A129G U143C, the self-cleavage amounted to 0.62.

Turning to G41U U45G A78G U130C A138G, the self-cleavage is 0.98.

In the case of U5C C37A A79G U115A, the self-cleavage was found to be 1.02.

For U12G U52A U130C, the self-cleavage is 1.84.

Turning to A43G A64U C118G U119G, the self-cleavage worked out at 0.84.

Turning to G35A A50G A79U A121G, the self-cleavage was found to be 1.05.

Turning to U87C C111A A141G, the self-cleavage is 0.28.

With U9C U47C A59C U102C, the self-cleavage worked out at 1.84.

With A67G A121G A138G, the self-cleavage is 1.07.

As for G11C U47C U104C A140G, the self-cleavage was 1.21.

A79G U85A U108C U130C: the self-cleavage came to 0.

For the variant C61A A79U C90U A121G, the self-cleavage was found to be 0.01.

Take U12C U26C G35C A59U G60A U115A G139U: the self-cleavage was determined as 0.09.

Turning to U45G U73C A142G, the self-cleavage is 1.08.

On to C37A U104C A121G, for which the self-cleavage was 1.64.

Consider U9C U45C A94G G127U, for which the self-cleavage is 0.54.

For U9G A43G U108C, the self-cleavage stood at 0.

Take C63U U109A A117G U143C: the self-cleavage was found to be 0.13.

A64U G89C A94G A141G: the self-cleavage came to 0.02.

U62C U96A A140U: the self-cleavage stood at 0.06.

As to A2G A64U A67G, the self-cleavage was determined as 0.54.

Consider A42G A79G U87C C101G, for which the self-cleavage amounted to 1.84.

In the case of U109A A142G C146U, the self-cleavage was 1.53.

In the case of U29C U47A U100C U109C, the self-cleavage was 1.84.

As for C28U U104C U109A, the self-cleavage stood at 1.3.

Consider U5C U115A G126A A141G, for which the self-cleavage amounted to 1.27.

For the variant G10A G35A A124U, the self-cleavage is 1.14.

Consider U20C A59G U108C C118U, for which the self-cleavage came to 0.12.

For A6U A31G U112A, the self-cleavage came to 1.02.

Regarding U26C G40A U119C, the self-cleavage came to 1.97.

Take U85C U96G U143C: the self-cleavage turned out to be 0.12.

Take A22G U39A A79G: the self-cleavage amounted to 1.46.

U1C A65U A94G: the self-cleavage amounted to 0.18.

For the variant U15G U39C A50G A57U, the self-cleavage was 0.46.

U62C A64G A121U U132C: the self-cleavage was found to be 0.14.

Consider A57G C84U U96C, for which the self-cleavage worked out at 0.3.

With U62C A79U G127A A129G, the self-cleavage came out at 0.03.

U91C G127A U134C: the self-cleavage was determined as 0.86.
